Source: the supplement of paper PMC12217912
The other results are listed elsewhere or left out. Sequences were assembled here from the parent chain. Values near 0.05 are background.

B1: TEV protease; numbered along this chain (parent)
chain: MGESLFKGPRDYNPISSSICHLTNESDGHTTSLYGIGFGPFIITNKHLFRRNNGTLVVQSLHGVFKVKDTTTLQQHLVDGRDMIIIRMPKDFPPFPQKLKFREPQREERICLVTTNFQTKSMSSMVSDTSCTFPSGDGIFWKHWIQTKDGQCGSPLVSTRDGFIVGIHSASNFTNTNNYFTSVPKNFMELLTNQEAQQWVSGWRLNADSVLWGGHKVFMVKPEEPFQPVKEATQL

Variants of: B1
Test: raw area under fraction-flipped curve 0-4 h after induction (AUC4h, not background-subtracted), DNA-recorder readout of cleavage of the substrate (dimensionless); higher = more cleavage of the substrate by the protease variant
Details: temperature: 34 °C; time window: 0-4 h after rhamnose induction
Description: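 In vivo DNA recorder in E. coli TOP10(DE3) ΔrhaA at 34 °C. Each TEVp single-site mutant (parent TEVp 0) is paired with a single-site variant of the 7-mer TEVs (canonical ENLYFQ|S). The substrate sits between flexible linkers in a Bxb1-sfGFP-TEVs-SsrA fusion, so cleavage stabilises Bxb1 and speeds flipping of a recombination array, read by NGS. The value is the raw area under the fraction-flipped curve over 0-4 h after rhamnose induction (AUC4h), with ≥20 reads per time point. It is not background-subtracted; inactive controls average about 0.047.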
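Further: Bxb1 expression induced with 0.2% (w/v) L-rhamnose at OD600 near 0.5, cultures sampled hourly, flipped fraction per protease–substrate barcode pair counted by paired-end Illumina sequencing.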

Variant	area with substrate ENLYFQA	area with substrate ENLYFQC	area with substrate ENLYFQD	area with substrate ENLYFQH	area with substrate ENLYFQK	area with substrate ENLYFQL	area with substrate ENLYFQN	area with substrate ENLYFQR	area with substrate ENLYFQS	area with substrate ENLYFQW	area with substrate ENLYFQI	area with substrate ENLYFQM	area with substrate ENLYFQP	area with substrate ENLYFQT	area with substrate ENLYFQV	area with substrate ENLYFQY	area with substrate ENLYFQE	area with substrate ENLYFQG	area with substrate ENLYFQQ	area with substrate ENLYFQF
M88Y	0.0782	0.0753	0.0627	0.0636	0.061	0.0554	0.0721	0.0403	0.0629	0.062										
M88W	0.0865	0.107	0.0466	0.0644	0.0537		0.075	0.0494	0.0834	0.0483	0.0428	0.0537	0.043	0.0578	0.0345	0.0559				
W144H	0.0639		0.0882	0.078	0.0585	0.056	0.0608	0.0499	0.08	0.0801	0.0669	0.0777	0.0704	0.0526	0.0923	0.0714	0.0535	0.0711	0.0634	
W144C	0.113	0.115	0.0723	0.068		0.0543	0.0756	0.0599	0.0889	0.067	0.0558	0.0855	0.0685	0.0616	0.0631	0.0741		0.0782		0.0433
W144S	0.0808	0.0944		0.118	0.0648	0.0569	0.0922	0.0584	0.0885	0.0777	0.059	0.0997		0.0738		0.0758		0.0889	0.096	
W144Y	0.075	0.1	0.0601	0.0731	0.0677	0.062	0.0747	0.0603	0.0846	0.0635	0.0536	0.0671		0.0641	0.0539	0.0307		0.0885		0.0559
W144V	0.0836	0.0959		0.0696	0.0663	0.0534		0.0581	0.086	0.0527	0.0432	0.061	0.0613	0.0663	0.0579	0.067		0.0853	0.0556	
W144K	0.0641	0.102	0.0707	0.0789				0.0626	0.0894	0.0807	0.058	0.0741							0.0639	
W144R	0.0509	0.101			0.0505	0.0559	0.0711		0.0818		0.0671	0.0776	0.062	0.0596				0.172	0.0284	
Q105W	0.0892	0.119		0.0752	0.0654	0.0629	0.0701	0.0531	0.0972	0.0895	0.0538	0.0714	0.0668	0.0595	0.0581			0.0832	0.0797	0.0635
G150E	0.0368	0.061	0.0627	0.0479	0.0609	0.0529	0.0517	0.058	0.0578	0.0522			0.0586	0.0613	0.0537	0.067		0.0759	0.0624	0.0508
G150W	0.052	0.0535	0.0576	0.0536	0.0574	0.0475	0.0416	0.056	0.0592	0.0502	0.0608	0.0528	0.0608	0.0599		0.0581	0.0392	0.059	0.0631	0.0655
F140R	0.0288	0.0612	0.0584	0.0576	0.0595	0.0588	0.0563	0.0689	0.0623	0.0614	0.0618	0.061		0.0495	0.0596	0.0845		0.0635		0.0514
K142G	0.0711	0.0809			0.067	0.0665	0.0641	0.0636	0.0766	0.0846	0.0518	0.0758	0.0816	0.0606	0.0653	0.0606	0.0592	0.0812	0.0777	
P93S	0.0829	0.079	0.062			0.0738	0.0804	0.0639	0.0996	0.0625	0.0923	0.0788	0.0608	0.0661	0.0623			0.0876		0.0687
K148A	0.125	0.0751	0.0756	0.0661	0.0863	0.0769	0.0694	0.0675	0.101	0.0734	0.0574	0.104		0.0582	0.0626		0.0622	0.0836	0.0672	0.0738
D128L	0.107	0.138	0.0725	0.105	0.0557	0.0703	0.108	0.0698	0.148	0.0661		0.103	0.0664	0.0586		0.0606		0.159	0.0761	
D128E	0.0938	0.12	0.0684		0.0502	0.0605	0.0762		0.109		0.0677			0.0666	0.0659				0.0867	0.0784
D128F	0.146			0.136	0.0879	0.0594	0.109	0.0622	0.157	0.0825	0.0371	0.114		0.0816		0.0688		0.11		
D128A	0.125	0.193	0.0933	0.108	0.0635	0.0701	0.113	0.0551	0.13			0.0888		0.0686	0.0701	0.0821			0.088	
D128M	0.116	0.184	0.0964	0.101	0.0538	0.0675	0.13	0.0478	0.166	0.074	0.0565	0.14	0.0521	0.0851	0.0748	0.091		0.166	0.111	
R106D	0.0966	0.166	0.0969	0.0622	0.0637	0.0755	0.0563	0.0624	0.101	0.0548	0.0578		0.054	0.0659	0.0567	0.0792			0.0575	0.0626
